# Measurements as given in the supplement of paper PMC10338343.
# ± gives the standard deviation. Over roughly 6,600 sequences, “pre-steady-state target cleavage rate” has its median near 0.07; the highest 2% begin near 0.72. The list shows a part of the results, in another mix than the full data.
# System: MIWI (PIWIL1) piRISC loaded with Kctd7 piRNA (30 nt)
# Assay: pre-steady-state target cleavage rate (min^-1); MIWI and MILI are mouse PIWI proteins and EfPiwi is from a freshwater sponge; tags in brackets are library labels; higher = faster piRNA-guided slicing of the target
# Settings: guide: Kctd7 piRNA 5'p-UGUUAAUCUCUCAGAGAAGGUGACAGUGAU; auxiliary factor: 500 nM mouse GTSF1
# Summary of the method: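 Cleave-'n-Seq used a transcribed, DNA-blocked target RNA library at 0.1 nM and active affinity-purified piRISC with one synthetic guide at 1 nM, with or without 500 nM GTSF1 partner protein, in HEPES–potassium acetate buffer at 33 °C for 0–8 or 0–960 min. Uncleaved targets were sequenced and normalised to depth and to weakly complementary targets, and three trials were pooled with k3 capped at 0.0001 min^-1. The pre-steady-state cleavage rate was estimated by a burst-and-steady-state fit.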
row,Sequence,pre-steady-state target cleavage rate
1,AUCACUGUGACCUUCUCUGAGAGAUUUUGA,0.0531 ± 0.011
2,UACACUGUCACCUUCUCUCGAGAGAUUAACA,0.16 ± 0.059
3,AUCGCUGUCACCUUCUCUGAGAGAUUAACA,0.825 ± 0.042
4,UAGUGUGUCACGAUCUCUGAGAGAUUAAGA,0.0773 ± 0.013
5,UUCACUGUGUCCUUCUCUGAGAGAUUAUGA,0.102 ± 0.02
6,UAGACUGUCACCUUGCUCUGAGAGAUUAACA,0.358 ± 0.049
7,UAGUGAGUCACCUUCUCUGAGAGUAUUAACA,0.272 ± 0.026
8,UUCUCUGUCUCCUUCUCUGAGAGAUUAACA,0.539 ± 0.034
9,UACUCUGUCACCUACUCUGAGAGAUUAACA,0.588 ± 0.038
10,UAGUGAGUGACCUUCUCAGAGAGAUUAACA,0.226 ± 0.026
11,UACACUGUCACCUUCUCUGAGAGAUGAACA,0.164 ± 0.029
12,UAGUGACAGUCCUUCAUCUGAGAGAUUAACA,0.00688 ± 0.0025
13,UAGUGACACACCUUCUCUGAGAGAGUUAACA,0.32 ± 0.048
14,UAGUGACACACUUUCUCUGAGAGAUUAACA,0.496 ± 0.03
15,UAGUGUGUCAGCUUGUCUGAGAGAUUAACA,0.313 ± 0.016
16,UAGUGACAGACUCUUCUCUGAGAGAUUAACA,0.0358 ± 0.004
17,UAGUGACUUCACCUUCUCUGAGAGAUUAACA,0.652 ± 0.038
18,UAGUGACAGUGCUUCUCUGAGGGAUUAACA,0.0108 ± 0.0037
19,UACACUGUCACCAUCUCUGAGACAUUAACA,0.108 ± 0.014
20,AUCACUCUCACCUUCUGUGAGAGAUUAACA,0.0764 ± 0.011
21,UAGUGACACACCUUGUCUGAGAGUUUAACA,0.0353 ± 0.013
22,AUCUCUCUCACCUUCUCUGAGAGAUUAACA,0.214 ± 0.023
23,UUCACUGUCACCUUCUCUGAGAGUAAAAGA,0.0745 ± 0.022
24,AUCACUGACACCUUCUCUGACAGAUUAACA,0.418 ± 0.022

row,Sequence,pre-steady-state target cleavage rate
1,UUCACUGUCACCUUCUCUGACAGAUUAUCA,0.0212 ± 0.0064
2,UAGUGACAGACCUUCUCUGAGAGAUUACCA,0.0674 ± 0.012
3,UAGUGACAGUGGAAGAGACAGAAAUUAACA,< 0.0001
4,UACACUGUCACCUUCUGUGAGAGAUUAUCA,0.0501 ± 0.013
5,UAGUGACACACCUUCUCUGAGAGAUUAAGA,0.155 ± 0.029
6,UAGUGUGUCACCUUCUCUCACAGAUUAACA,0.0203 ± 0.0078
7,UUCACUGUCACCUUCUCUGAGACUUUAAGA,0.0101 ± 0.0043
8,UACACUGUCACCUUCUCUGAGAGAAUUACA,0.221 ± 0.053
9,UAGUGACUGACCUUCUCUGAGAGAUUAAGA,0.052 ± 0.011
10,UAGUGACAGUCCUUCUCUGAGAGUAAUUGA [g8:g20:cont:t1A],< 0.0001
11,UAGUGACACACCUUCUCUGAGAGUUAAACA,0.0294 ± 0.0094
12,AAGACUGUCACCUUCUCUGAGAGAUUUUGA,0.00833 ± 0.0033
13,UACACUGUCAGGUUCUCUGAGAGAUUAAGA,0.0532 ± 0.0098
14,AUCACUGUGUCCUUCUCUGAGAGAUAUUGA,0.0103 ± 0.0042
15,AUCACUGUCACGUUCUCUGUGAGAUUAACA,0.22 ± 0.013
16,UAGUGACUCACACUUCUCUGAGAGAUUAACA,0.0999 ± 0.011
17,UAGAGACUCACCUUCUCUGAGAGAUUAACA,0.597 ± 0.027
18,UACACUCUCACCUUGUCUGAGAGAUUAACA,0.174 ± 0.025
19,AUGACUGACACCUUCUCUGAGAGAUUAACA,0.646 ± 0.029
20,UACACUGUCACCUACUCUGUGAGAUUAACA,0.202 ± 0.017
21,AAGUCUGUCACCUUCUCUGAGAGAUAUUGA,0.0194 ± 0.0071
22,UACACUGUCACCUUGUCUGACAGAUUAACA,0.221 ± 0.037
23,AUCACUGUCACCUUCUCUCUGAGAUUAUGA,0.00839 ± 0.0048
24,AUCACUGUCACCAUCACUGAGAGAUUAACA,0.481 ± 0.024

row,Sequence,pre-steady-state target cleavage rate
1,UAGACUCUCACCUUCUCUGAGAGAUAUUGA,0.0531 ± 0.011
2,UAGUGACAGUGGAAGUCUGAGGGAUUAACA,< 0.0001
3,UUCACUGUCACCUUCACUGAGAGAAUAACA,0.219 ± 0.048
4,UACACUGUCAGCUUCUCUGAGAGAUUUACA,0.21 ± 0.022
5,UUCAGUGUCACCUUCUCUGAGAGAAUAACA,0.26 ± 0.044
6,UACACUGUCACCUUCACAGAGAGAUUAACA,0.0735 ± 0.013
7,UAGUGACUCACGUUCUCUGUGAGAUUAACA,0.0459 ± 0.0042
8,UAGUGACACACCUUCUGUGAGACAUUAACA,0.127 ± 0.018
9,UAGUGUGUCACGUUCUCAGAGAGAUUAACA,0.206 ± 0.019
10,UAGUCUGUCCACCUUCUCUGAGAGAUUAACA,0.474 ± 0.043
11,UUCACUGUCUCCUUGUCUGAGAGAUUAACA,0.263 ± 0.039
12,AUCACUGUCACGUUCUCUGAGACAUUAACA,0.00974 ± 0.0034
13,UAGUGUGUCAGGAUCUCUGAGAGAUUAACA,0.0321 ± 0.0065
14,UAGUGAGUCACCUUCUCUGAGAGGAUUAACA,0.266 ± 0.027
15,AUCACUGUCACCUUCUCAGAGAGAUUAUGA,0.0679 ± 0.018
16,UACACUGUCACCUUCACUGAGAGAUUUACA,0.365 ± 0.064
17,UAGUGACAGUGGAAGAGUGACAGAUUAACA,< 0.0001
18,UAGACUGUCACCUUUCUGAGAGAUUAACA,0.5 ± 0.033
19,UAGUGUGUCACCUACUCUGAGAGAUAAACA,0.321 ± 0.05
20,UAGUGAGUCACCGUUCUCUGAGAGAUUAACA,0.453 ± 0.026
21,AUCUGAGUCACCUUCUCUGAGAGAUAUUGA,0.0707 ± 0.016
22,UAGUCUGUCACCUUGUCUGAGACAUUAACA,0.122 ± 0.02
23,UAGUGACAGACCUUCUGUGAGAGAAUAACA,0.0119 ± 0.0044
24,UAGUGAGUGACCUUCUCUGAGACAUUAACA,0.0514 ± 0.0074
